Reference: the supplement of paper PMC7580552
Where a name gives a salt, the structure may show the parent alone. Some of the results follow. Most values come without repeats; read them as rough.

Test system: Escherichia coli W3110
Test: planktonic growth (OD600) relative to untreated control; higher = more growth
Details: 10 µM; 20-24 h; 30 °C; TB
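Further: stationary (unshaken) cultures in 96-well plates, started at OD600 0.05 from mid-exponential cells, with compounds supplied from DMSO stocks.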

| SMILES | planktonic growth [%] |
| --- | --- |
| COc1c(N2C[C@@H]3CCCN[C@@H]3C2)c(F)cc2c(=O)c(C(=O)O)cn(C3CC3)c12 [Moxifloxacin] | 27 |
| COc1ccc(C(=O)c2ccccc2)c(O)c1 [Oxybenzone] | 102 |
| CCCCCN(CCCCC)C(=O)C(CCC(=O)O)NC(=O)c1ccc(Cl)c(Cl)c1 (configuration not stated) [Lorglumide sodium salt] | 95 |
| CC(C)(C)NC(=O)[C@@H]1C[C@@H]2CCCC[C@@H]2CN1C[C@@H](O)[C@H](Cc1ccccc1)NC(=O)[C@H](CC(N)=O)NC(=O)c1ccc2ccccc2n1 [Saquinavir mesylate] | 97 |
| Nc1nc2c(ncn2COCCO)c(=O)[nH]1 [Acyclovir] | 109 |
| CCCCN(CCCC)CCC(O)c1cc2c(Cl)cc(Cl)cc2c2cc(C(F)(F)F)ccc12 (configuration not stated) [Halofantrine hydrochloride] | 107 |
| C#C[C@]1(O)CC[C@H]2[C@@H]3CCc4cc(O)ccc4[C@H]3CC[C@@]21C [Ethinylestradiol] | 104 |
| CCOc1cc(CC(=O)N[C@@H](CC(C)C)c2ccccc2N2CCCCC2)ccc1C(=O)O [Repaglinide] | 104 |
| CCOC(=O)C1=C(C)NC(C)=C(C(=O)OCC)C1c1ccccc1/C=C/C(=O)OC(C)(C)C [Lacidipine] | 92 |
| C/C(=C(\CCOP(=O)(O)O)SC(=O)c1ccccc1)N(C=O)Cc1cnc(C)nc1N [Benfotiamine] | 94 |
| CCN(CC)C(=S)SSC(=S)N(CC)CC [Disulfiram] | 91 |
| Nc1c2c(nc3ccccc13)CCCC2 [Tacrine hydrochloride] | 109 |
| COC(=O)C1=C(C)NC(C)=C(C(=O)OC2CCCN(Cc3ccccc3)C2)C1c1cccc([N+](=O)[O-])c1 (configuration not stated) [Benidipine hydrochloride] | 110 |
| CCNC(=O)CCC/C=C\C[C@@H]1[C@@H](/C=C/[C@@H](O)CCc2ccccc2)[C@H](O)C[C@@H]1O [Bimatoprost] | 97 |
| C[C@]12C[C@H](O)[C@H]3[C@@H](CCC4=CC(=O)CC[C@@]43C)[C@@H]1CC[C@@H]2C(=O)CO [Corticosterone] | 101 |
| CC[C@H]1OC(=O)C[C@@H](O)[C@H](C)[C@@H](O[C@@H]2O[C@H](C)[C@@H](O[C@H]3C[C@@](C)(O)[C@@H](O)[C@H](C)O3)[C@H](N(C)C)[C@H]2O)[C@@H](CC=O)C[C@@H](C)C(=O)/C=C/C(C)=C/[C@@H]1CO[C@@H]1O[C@H](C)[C@@H](O)[C@@H](OC)[C@H]1OC [Tylosin] | 95 |
| O=C(CCCCCCC(=O)Nc1ccccc1)NO [Vorinostat] | 95 |
